# From article PMC6919601, “Identification of Plasmodium dipeptidyl aminopeptidase allosteric inhibitors by high throughput screening” (PLoS ONE, 2019)
# About 230 (0.21%) of roughly 110,000 compounds showed an effect of 50% or more. This is one part of the list.
# Biological target: DPAP1 (Plasmodium falciparum, UniProt Q8IIJ9)
# Assay: primary screen, percent inhibition; read by cleavage of a fluorogenic dipeptide substrate; higher = more effect of the substance
# Design: species or system P. falciparum D10 trophozoite lysates; single well
# 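Also: 30 min substrate incubation versus DMSO and 10 µM JCP410 controls.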
# Sequence of DPAP1 (Q8IIJ9 whole entry, looked up): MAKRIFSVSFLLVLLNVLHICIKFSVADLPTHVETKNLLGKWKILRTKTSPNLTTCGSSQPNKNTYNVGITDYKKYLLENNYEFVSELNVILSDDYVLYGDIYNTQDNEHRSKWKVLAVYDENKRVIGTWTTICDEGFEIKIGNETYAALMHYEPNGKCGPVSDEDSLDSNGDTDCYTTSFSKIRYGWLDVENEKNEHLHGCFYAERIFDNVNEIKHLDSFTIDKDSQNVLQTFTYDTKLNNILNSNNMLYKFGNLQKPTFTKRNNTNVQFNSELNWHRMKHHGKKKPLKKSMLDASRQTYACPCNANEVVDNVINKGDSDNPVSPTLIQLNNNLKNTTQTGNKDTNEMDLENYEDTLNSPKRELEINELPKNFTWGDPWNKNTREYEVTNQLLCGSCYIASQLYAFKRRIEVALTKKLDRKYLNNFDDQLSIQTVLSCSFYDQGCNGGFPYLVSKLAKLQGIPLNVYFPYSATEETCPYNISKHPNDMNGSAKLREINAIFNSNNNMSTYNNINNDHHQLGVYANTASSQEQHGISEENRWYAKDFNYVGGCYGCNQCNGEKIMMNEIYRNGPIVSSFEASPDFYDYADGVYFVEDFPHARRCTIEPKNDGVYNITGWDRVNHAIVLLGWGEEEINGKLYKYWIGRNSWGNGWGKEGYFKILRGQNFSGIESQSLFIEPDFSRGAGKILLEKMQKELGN
row,Compound,% Inhibition @ 10 uM [%]
1,Oc1nc(SCc2ccccc2)nc2c1CCC2,-1.06
2,CCOP(=O)(/C(=C(\NC(=O)c1ccccc1)C(=O)N1CCOCC1)c1ccccc1)c1ccccc1 (stereo not shown),3.65
3,COC(=O)c1cc(S(=O)(=O)N2CCN(C(c3ccc(F)cc3)c3ccc(F)cc3)CC2)c[nH]1,7.12
4,O=C(COc1ccccc1)NCCCc1nc2ccccc2n1Cc1ccccc1F,5.4
5,O=C(ON1C(=O)CCC1=O)c1cc(N2C(=O)c3ccccc3C2=O)ccc1Cl,-2.83
6,OCC1CCCN(Cc2ccsc2)C1 (stereo not shown),0.135
7,Cc1nc2c(nnn2Cc2ccccc2)c(=O)n1C,4.19
8,CC(C)C[C@H](NC(=O)c1ccc(-c2ccsc2C#N)cc1)C(=O)NCC#N,1.16
9,CC1(C)CC2=Nc3ccccc3NC(c3cccc(C(F)(F)F)c3)C2=C(O)C1 (stereo not shown),-5.73
10,CC(=O)c1cccc(NC(=O)Nc2ccc(Cl)cc2)c1,1.25
11,COc1ccc(-c2nc(-c3ccncc3)no2)cc1,-1.66
12,CC(C)C[C@H](NC(=O)c1ccc(NC(=O)OC(C)(C)C)cc1)C(=O)NCC#N,-1.41
13,COCCN1C=C(C(=O)OC)C(c2ccc(O)cc2)C(C(=O)OC)=C1,-5.01
14,CCn1c(C(=O)NCc2ccc(F)cc2)cc2sccc21,-3.08
15,COc1ccc(/C=C(/C(=O)c2ccc(Cl)cc2Cl)n2cncn2)cc1OC,0.00706
16,CCOC(=O)c1cnc(Nc2nc3ccccc3o2)nc1CSc1nc2ccccc2s1,0.628
17,c1ccc(CCN2CCC(N3CCC(Cc4ccccc4)CC3)CC2)cc1,-0.0908
18,c1ccc(Cn2ncc3c2ncn2nc(CSc4nc5ccccc5s4)nc32)cc1,-2.14
19,CC(C)C[C@@H](CN1CC[C@@H](NC(=O)[C@H](CC(C)C)NC(=O)OCc2ccccc2)C1)NC(=O)OCc1ccccc1,-0.778
20,CCOc1ccc(-c2noc(CCC(=O)O)n2)cc1,-2.4
21,Cc1ccc(-c2cc(C(=O)NCc3cccnc3)no2)cc1,3.54
22,O=[N+]([O-])c1ccc(C2Sc3ccccc3N=C3C2=C(O)c2ccccc23)cc1 (stereo not shown),-2.32
23,CCCc1nn(C)c2c(O)nc(-c3cc(S(=O)(=O)Nc4ccccc4)ccc3OCC)nc12,-1.89
24,CCCc1[nH]nc2c1C(c1c(C)nn(-c3ccccc3)c1Cl)C(C#N)=C(N)O2 (stereo not shown),-0.759
25,CC(=O)Nc1sccc1C(=O)Nc1ccccc1,-1.04

row,Compound,% Inhibition @ 10 uM [%]
1,COc1ccc(-c2noc(CN(C(=O)c3c(-c4ccccc4Cl)noc3C)C(C)C)n2)cc1,-0.683
2,O=[N+]([O-])c1ccc(CN2CCN(c3ccc(F)cc3)CC2)o1,-1.98
3,COc1ccc(CNc2ncnc3onc(-c4ccc(Cl)cc4)c23)cc1,0.945
4,CC(=O)NCCSCCNC(C)=O,4.73
5,C=C(C)c1cccc(C(C)(C)NC(=O)NC23CC4CC(CC(C4)C2)C3)c1,-5.85
6,NC(=O)c1c(NC(=O)c2ccc(Cn3cc(Cl)cn3)cc2)sc2c1CCCC2,5.66
7,COc1cccc(NC(=O)CN(c2cccc(F)c2)S(C)(=O)=O)c1,2.19
8,Cc1ccc(-c2nc(CS(=O)(=O)CC(=O)N3CCOCC3)c(C)o2)cc1,-1.89
9,CCCOc1ccc(C(=O)Nc2c(O)oc3ccccc3c2=O)cc1,-1.68
10,Clc1ccc(COc2ccccc2CNCc2cccnc2)cc1,-6.02
11,Cc1cc(C(=O)Nc2cccc(F)c2)c(C)o1,11.2
12,COc1ccc(CNC(=O)C2CC(c3ccccc3F)=NO2)cc1 (stereo not shown),-3.94
13,COc1cc(C(=O)Nc2cccc(Cl)c2)cc(OC)c1OC,-3.57
14,O=C(c1ccc(Cl)cc1)N(Cc1ccco1)C1CCS(=O)(=O)C1 (stereo not shown),-1.11
15,CN1CCN(Cc2nnc(S)n2-c2cccc3ccccc23)CC1,2.6
16,N#Cc1ccc(C(=O)Nc2ccc(N3CCCCC3)c(Cl)c2)c(F)c1,-12.5
17,N#CCc1nc(-c2ccc(Br)cc2)cs1,-1.69
18,NC(=O)c1ccc(NC(=O)c2cc3ccccc3cc2O)cc1,2.6
19,COc1ccc(NC(=O)c2cccc(C)c2)c(OC)c1,-2.6
20,COc1ccc(/N=C2/S/C(=C\c3cc(Br)ccc3OCC(=O)O)C(=O)N2C)cc1,8.18
21,CCOC(=O)C1=C(CS(=O)(=O)c2ccc(F)c(C)c2)NC(=O)NC1c1ccc(C(C)C)cc1 (stereo not shown),4.41
22,CC1CC(O)(C#CC2(O)CC(C)SC3CCCCC32)C2CCCCC2S1 (stereo not shown),1.7
23,Cc1ccc(S(=O)(=O)c2nc(S(C)(=O)=O)sc2NCc2ccco2)cc1,-2.25
24,O=C(NCC1CCCO1)c1cc(-c2ccccn2)nc2ccc(S(=O)(=O)N3CCOCC3)cc12 (stereo not shown),3.66
25,COCc1cc(C)nc(SCC(=O)Nc2ccccc2OC)c1C#N,1.02

row,Compound,% Inhibition @ 10 uM [%]
1,COc1ccc(S(=O)(=O)N(CC(=O)Nc2ccc(F)cc2)c2cc(C)cc(C)c2)cc1OC,-0.796
2,CC(C)CC(=O)NC(=C(Cl)Cl)S(=O)(=O)c1ccccc1,-6.27
3,COCCCN1C(=O)C(O)=C(C(=O)c2ccc(OC)cc2)C1c1ccc(Cl)cc1 (stereo not shown),3.53
4,COc1cc(C2C(C(=O)c3cccs3)=C(O)C(=O)N2Cc2cccnc2)ccc1O (stereo not shown),-1.25
5,CCN1C(=O)c2ccc(-c3nc4ccccc4s3)cc2C1=O,15.7
6,CCOc1cccc(C2CC(=O)Nc3cc4c(cc32)OCO4)c1 (stereo not shown),0.475
7,Cc1cc(C)n2nc(SCC(=O)NCCC(C)C)nc2n1,-4.06
8,O=C(CN(c1ccccc1F)S(=O)(=O)c1ccccc1)NCc1ccccc1,0.324
9,CCOC(=O)C1CCN(Cc2ccc(SC)cc2)CC1,-5.41
10,COCCN1C(=O)c2ccccc2C(C(=O)Nc2ccccn2)C1c1cccs1 (stereo not shown),2.46
11,Cc1cc(C)cc(NC(=O)c2cccnc2)c1,-1.22
12,COCCN1C(=O)c2ccccc2C(C(=O)Nc2cccnc2)C1c1c[nH]c2ccccc12 (stereo not shown),-4.03
13,N#CCNC(=O)[C@H](CC1CCCCC1)NC(=O)c1cc2ccccc2o1,-0.214
14,CCn1cc(/C=C(\NC(=O)c2cc(OC)c(OC)c(OC)c2)C(=O)NCCCO)c2ccccc21,3.24
15,O=C(O)c1nn2c(c1Br)NC(c1ccccc1)CC2C(F)(F)F (stereo not shown),-3.49
16,Cc1ccc(CNCc2c(C(=O)O)[nH]c3cc(C)ccc23)cc1,1.26
17,O=C(O)c1nccnc1C(=O)Nc1nccs1,-4.74
18,CC(=O)c1ccccc1OCC(O)Cn1cnc2cc(C)c(C)cc21 (stereo not shown),2.31
19,CC(C)CC(=O)Nc1nnc(S(=O)(=O)N2CCCCC2)s1,1.68
20,C=CCSC1=C(C#N)C(C)(C)C(C#N)C(=O)N1 (stereo not shown),-2.51
21,Cc1ccc(Cl)cc1-n1ncc2c(NCc3ccco3)ncnc21,-5.19
22,CC1CCN(C(=O)c2cccc(NC(=O)c3cccs3)c2)CC1,3.66
23,CCOC(=O)c1c(NC(=O)c2cc(Cl)ccc2OC)sc2c1CCCC2,19.4
24,Cc1nc(NC(=O)c2ccc(F)cc2)ccc1Br,0.843
25,O=[N+]([O-])c1ccc2[nH]c3c(c2c1)CCC/C3=N\CCO,9.01

row,Compound,% Inhibition @ 10 uM [%]
1,CC(C)Cc1nnc2sc(NC(=O)C(C)C)nn12,-2.48
2,Cc1nn(CC(=O)NCc2ccc(OC(C)C)cc2)c(=O)c2cccn12,-0.698
3,CCc1cccc(OCC(=O)Nc2ccc(Br)cc2C(=O)O)c1,0.605
4,CC(=O)N1CCc2nc3sc(C(N)=O)c(N)c3c(C(F)(F)F)c2C1,2.72
5,COc1ccc(NS(=O)(=O)c2ccc(OC)c(Cl)c2Cl)cc1OC,-15.4
6,Cc1c(Cl)cccc1NC(=O)/C=C/c1ccc(Cl)cc1,4.54
7,OC1C2CCCC1C(N1CCCCC1)CC2 (stereo not shown),3.72
8,CC1CCN(S(=O)(=O)c2ccc(NC(=O)c3cc(Cl)ccc3Cl)cc2)CC1,2.22
9,CCOC(=O)C1=C(C)NC(=O)NC1c1cc(Cl)cc(Cl)c1OC (stereo not shown),-1.45
10,COCCNC(=O)CCc1nnc2n(Cc3ccccc3Cl)c(=O)c3ccccc3n12,-4.21
11,NC(=O)C1CCCN(CC2CC=CCC2)C1 (stereo not shown),0.0792
12,Cc1cc(C)cc(OCC(O)CN2CC(C)OC(C)C2)c1 (stereo not shown),0.815
13,Cc1ccc(-n2nc3c(c2NC(=O)c2ccc(Br)cc2)CS(=O)(=O)C3)c(C)c1,5.49
14,CC1=CCC2CC1C(c1ccc(O)cc1)OC2(C)C (stereo not shown),18.2
15,Cc1[nH]nc(O)c1C(c1ccccc1)C(C#N)C#N (stereo not shown),0.605
16,CC1(C)CC(=O)c2c(O)c(-c3ccccc3)c(=O)n(-c3ccc(Br)cc3)c2C1,-6.58
17,CC1CCN(C(=O)CN(Cc2ccccc2)S(C)(=O)=O)CC1,1.86
18,O=C(O)C1CC1(c1ccccc1)c1ccccc1 (stereo not shown),-10.2
19,O=C(O)C1Sc2nc(O)sc2C2c3cc(Br)cc(Br)c3OC(=O)C12 (stereo not shown),5.44
20,COc1cc(OC)c(OC)cc1CN1CCN(C)CC1,1.63
21,COc1ccc(C2CC(O)=C/C(=N/CCc3c(C)[nH]c4ccccc34)C2)cc1 (stereo not shown),1.03
22,CCC(C(=O)NCC1CCCO1)n1nc(C)n2c(cc3sccc32)c1=O (stereo not shown),1.8
23,COc1ccc(/C=N\n2nnnc2N)cc1Br,9.09
24,Cc1nnc(N2CCCC(C(=O)NCC3CCCO3)C2)c2nn(-c3ccc(Cl)cc3)c(C)c12 (stereo not shown),-1.41
25,Cc1sc2ccc(-c3ccccc3)cc2[n+]1CCCS(=O)(=O)O,-1.33
